# This is one part of the list.
# B1: GALT1 615 (Arabidopsis thaliana), Q8L7F9 (protein)
# chain: DPMRGSHHHHHHGMASMTGGQQMGRDLYDDDDKSRLQKPYITAAASVVVTPNTTLPMEWLRITLPDFMKEARNTQEAISGDDIAVVSGLFVEQNVSKEEREPLLTWNRLESLVDNAQSLVNGVDAIKEAGIVWESLVSAVEAKKLVDVNENQTRKGKEELCPQFLSKMNATEADGSSLKLQIPCGLTQGSSITVIGIPDGLVGSFRIDLTGQPLPGEPDPPIIVHYNVRLLGDKSTEDPVIVQNSWTASQDWGAEERCPKFDPDMNKKVDDLDECNKMVGGEINRTSSTSLQSNTSRGVPVAREASKHEKYFPFKQGFLSVATLRVGTEGMQMTVDGKHITSFAFRDTLEPWLVSEIRITGDFRLISILA
# Columns and labels:
# Assay in all cases: glycan array binding signal (z-score within array); higher = stronger binding
# Settings in all cases: glycan notation: IUPAC condensed, linker removed
# [1] = target: Neu5Ac(a2-6)Gal(b1-4)Glc
# Summary of the method: (§1)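 The Consortium for Functional Glycomics database supplied 3228 glycan arrays, of which those lacking an available protein sequence were dropped. The binding signal, a within-array Z-score, was averaged across arrays of the same protein sequence and across linkers. Negative scores can be read as non-binding.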
# [2] = target: Neu5Ac(a2-6)Gal(b1-4)GlcNAc
# Summary of the method: as §1
# [3] = target: Neu5Ac(a2-6)Gal(b1-4)GlcNAc(b1-2)Man(a1-3)Man(b1-4)GlcNAc(b1-4)GlcNAc
# Summary of the method: as §1
# [4] = target: Neu5Ac(a2-6)Gal(b1-4)GlcNAc(b1-2)Man(a1-3)[Gal(b1-4)GlcNAc(b1-2)Man(a1-6)]Man(b1-4)GlcNAc(b1-4)GlcNAc
# Summary of the method: as §1
# [5] = target: Neu5Ac(a2-6)Gal(b1-4)GlcNAc(b1-2)Man(a1-3)[GlcNAc(b1-2)Man(a1-6)]Man(b1-4)GlcNAc(b1-4)GlcNAc
# Summary of the method: as §1
# [6] = target: Neu5Ac(a2-6)Gal(b1-4)GlcNAc(b1-2)Man(a1-3)[GlcNAc(b1-2)Man(b1-4)GlcNAc(b1-2)Man(a1-6)]Man(b1-4)GlcNAc(b1-4)GlcNAc
# Summary of the method: as §1
# [7] = target: Neu5Ac(a2-6)Gal(b1-4)GlcNAc(b1-2)Man(a1-3)[Man(a1-6)]Man(b1-4)GlcNAc(b1-4)GlcNAc
# Summary of the method: as §1
# [8] = target: Neu5Ac(a2-6)Gal(b1-4)GlcNAc(b1-2)Man(a1-3)[Neu5Ac(a2-6)Gal(b1-4)GlcNAc(b1-2)Man(a1-6)]Man(b1-4)GlcNAc(b1-4)GlcNAc
# Summary of the method: as §1
# [9] = target: Neu5Ac(a2-6)Gal(b1-4)GlcNAc(b1-2)Man(a1-6)Man(b1-4)GlcNAc(b1-4)GlcNAc
# Summary of the method: as §1
# [10] = target: Neu5Ac(a2-6)Gal(b1-4)GlcNAc(b1-2)Man(a1-6)[Gal(b1-4)GlcNAc(b1-2)Man(a1-3)]Man(b1-4)GlcNAc(b1-4)GlcNAc
# Summary of the method: as §1
# [11] = target: Neu5Ac(a2-6)Gal(b1-4)GlcNAc(b1-2)Man(a1-6)[GlcNAc(b1-2)Man(a1-3)]Man(b1-4)GlcNAc(b1-4)GlcNAc
# Summary of the method: as §1
# [12] = target: Neu5Ac(a2-6)Gal(b1-4)GlcNAc(b1-2)Man(a1-6)[Man(a1-3)]Man(b1-4)GlcNAc(b1-4)GlcNAc
# Summary of the method: as §1
# [13] = target: Neu5Ac(a2-6)Gal(b1-4)GlcNAc(b1-3)Gal(b1-3)GlcNAc
# Summary of the method: as §1
# [14] = target: Neu5Ac(a2-6)Gal(b1-4)GlcNAc(b1-3)Gal(b1-4)GlcNAc
# Summary of the method: as §1
# [15] = target: Neu5Ac(a2-6)Gal(b1-4)GlcNAc(b1-3)Gal(b1-4)GlcNAc(b1-3)Gal(b1-4)GlcNAc
# Summary of the method: as §1
# [16] = target: Neu5Ac(a2-6)Gal(b1-4)GlcNAc(b1-3)Gal(b1-4)[Fuc(a1-3)]GlcNAc(b1-3)Gal(b1-4)[Fuc(a1-3)]GlcNAc
# Summary of the method: as §1
# [17] = target: Neu5Ac(a2-6)Gal(b1-4)GlcNAc(b1-3)GalNAc
# Summary of the method: as §1
# [18] = target: Neu5Ac(a2-6)Gal(b1-4)GlcNAc6S
# Summary of the method: as §1
# [19] = target: Neu5Ac(a2-6)GalNAc
# Summary of the method: as §1
# [20] = target: Neu5Ac(a2-6)GalNAc(b1-4)GlcNAc
# Summary of the method: as §1
# [21] = target: Neu5Ac(a2-6)GlcNAc(b1-4)GlcNAc
# Summary of the method: as §1
# [22] = target: Neu5Ac(a2-6)GlcNAc(b1-4)GlcNAc(b1-4)GlcNAc
# Summary of the method: as §1
# [23] = target: Neu5Ac(a2-8)Neu5Ac
# Summary of the method: as §1
# [24] = target: Neu5Ac(a2-8)Neu5Ac(a2-3)Gal(b1-4)Glc
# Summary of the method: as §1
# [25] = target: Neu5Ac(a2-8)Neu5Ac(a2-3)[GalNAc(b1-4)]Gal(b1-4)Glc
# Summary of the method: as §1
# [26] = target: Neu5Ac(a2-8)Neu5Ac(a2-8)Neu5Ac
# Summary of the method: as §1
# [27] = target: Neu5Ac(a2-8)Neu5Ac(a2-8)Neu5Ac(a2-3)Gal(b1-4)Glc
# Summary of the method: as §1
# [28] = target: Neu5Ac(a2-8)Neu5Ac(a2-8)Neu5Ac(a2-3)[GalNAc(b1-4)]Gal(b1-4)Glc
# Summary of the method: as §1
# [29] = target: Neu5Ac(a2-8)Neu5Ac(a2-8)Neu5Ac(a2-8)Neu5Ac(a2-3)[GalNAc(b1-4)]Gal(b1-4)Glc
# Summary of the method: as §1
# [30] = target: Neu5Ac(b2-6)Gal(b1-4)GlcNAc
# Summary of the method: as §1
# [31] = target: Neu5Ac(b2-6)GalNAc
# Summary of the method: as §1
# [32] = target: Neu5Ac9Ac(a2-3)Gal(b1-3)GlcNAc
# Summary of the method: as §1
# [33] = target: Neu5Ac9Ac(a2-3)Gal(b1-4)GlcNAc
# Summary of the method: as §1
# [34] = target: Neu5Ac9Ac(a2-6)Gal(b1-4)GlcNAc
# Summary of the method: as §1
# [35] = target: Neu5Gc(a2-3)Gal(b1-3)GlcNAc
# Summary of the method: as §1
# [36] = target: Neu5Gc(a2-3)Gal(b1-3)[Fuc(a1-4)]GlcNAc
# Summary of the method: as §1
# [37] = target: Neu5Gc(a2-3)Gal(b1-4)Glc
# Summary of the method: as §1
# [38] = target: Neu5Gc(a2-3)Gal(b1-4)GlcNAc
# Summary of the method: as §1
# [39] = target: Neu5Gc(a2-3)Gal(b1-4)[Fuc(a1-3)]GlcNAc
# Summary of the method: as §1
# [40] = target: Neu5Gc(a2-6)Gal(b1-4)GlcNAc
# Summary of the method: as §1
# [41] = target: Neu5Gc(a2-6)GalNAc
# Summary of the method: as §1
# [42] = target: Neu5Gc(b2-6)Gal(b1-4)GlcNAc
# Summary of the method: as §1
binder,measurement,setting,value
B1,glycan array binding signal (z-score),[1],0.148
same,glycan array binding signal (z-score),[2],-0.001
same,glycan array binding signal (z-score),[3],-0.144
same,glycan array binding signal (z-score),[4],0.026
same,glycan array binding signal (z-score),[5],0
same,glycan array binding signal (z-score),[6],0.829
same,glycan array binding signal (z-score),[7],-0.5
same,glycan array binding signal (z-score),[8],0.043
same,glycan array binding signal (z-score),[9],-0.297
same,glycan array binding signal (z-score),[10],-0.211
same,glycan array binding signal (z-score),[11],-0.313
same,glycan array binding signal (z-score),[12],-0.315
same,glycan array binding signal (z-score),[13],-0.302
same,glycan array binding signal (z-score),[14],-0.267
same,glycan array binding signal (z-score),[15],-0.247
same,glycan array binding signal (z-score),[16],-0.298
same,glycan array binding signal (z-score),[17],-0.114
same,glycan array binding signal (z-score),[18],-0.299
same,glycan array binding signal (z-score),[19],-0.429
same,glycan array binding signal (z-score),[20],-0.386
same,glycan array binding signal (z-score),[21],-0.215
same,glycan array binding signal (z-score),[22],-0.455
same,glycan array binding signal (z-score),[23],-0.287
same,glycan array binding signal (z-score),[24],-0.098
same,glycan array binding signal (z-score),[25],-0.085
same,glycan array binding signal (z-score),[26],-0.331
same,glycan array binding signal (z-score),[27],-0.294
same,glycan array binding signal (z-score),[28],-0.208
same,glycan array binding signal (z-score),[29],-0.246
same,glycan array binding signal (z-score),[30],-0.216
same,glycan array binding signal (z-score),[31],-0.345
same,glycan array binding signal (z-score),[32],-0.241
same,glycan array binding signal (z-score),[33],0.016
same,glycan array binding signal (z-score),[34],-0.313
same,glycan array binding signal (z-score),[35],-0.114
same,glycan array binding signal (z-score),[36],-0.232
same,glycan array binding signal (z-score),[37],0.836
same,glycan array binding signal (z-score),[38],-0.065
same,glycan array binding signal (z-score),[39],-0.177
same,glycan array binding signal (z-score),[40],-0.416
same,glycan array binding signal (z-score),[41],0.146
same,glycan array binding signal (z-score),[42],-0.419

# — the supplement of paper PMC8728848
